Experimental data as given in PubChem BioAssay AID2060485 (Molecular Pharmacology Branch, DTP, NCI, 2025).
A number of entries come with more than one value. They are shown here; other results are not. There may be further records. The values listed for one entry repeat one measurement across runs, samples, wells, individuals or studies.

Tested on: A375 multi-cell spheroids with HUVEC/MSC, viability
Experiment: Anticancer human tumor A375 cell line growth inhibition [GQUAD];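 note: spheroids exposed to compounds for seven days before readout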
Details: compound alone 3.16 µM; stronger effect = lower value
Text: DNA G-quadruplex Stabilizer Agents in Combinations in Complex Spheroids
A high-throughput screen of multi-cell type tumor spheroids was designed to identify active combinations of DNA G-quadruplex stabilizer agents and targeted small molecules. Complex spheroids include a stromal component modeled by human endothelial cells (HUVEC) and fibroblasts modeled by human mesenchymal stem cells (MSCs). The concentration ranges selected for each drug and investigational agent were based upon clinically achievable concentrations if the clinical Cmax of the agent was known.
Compounds. […] If the clinical Cmax for an agent had not been determined, the highest concentration tested was 10 microM. […]

Cc1[nH]c2ccc(F)cc2c1-c1nc2c3cccnc3c3ncccc3c2[nH]1
viability, T/C: 86.6, 96.5, 98.4, 98.2, 91, 97.1, 103, 111, 64.7, 75.3, 83.5, 74.7%
